Assay results taken from ChEMBL document CHEMBL4888484, “Replenishing the malaria drug discovery pipeline: Screening and hit evaluation of the MMV Hit Generation Library 1 (HGL1) against asexual blood stage Plasmodium falciparum ,using a nano luciferase reporter read-out” (2022).
“And” between values parts separate entries of the source, which are not always exact repeats. Equal values may be shown once. Screen size: about 150,000 compounds; about 540 (0.36%) showed an effect of 50% or more. The list shows a part of the results.

System: Plasmodium falciparum
Experiment: Primary screen in NF54 nanoGlo assay, in single point, at 2uM, 72h; a lower Z score goes with more inhibition
Type: functional, Erythrocyte
Details: timepoint 72 hour

SMILES	% Inhibition [%]	Z score	% Inhibition (2 µM)
O=C(c1ccccc1-c1nnn[nH]1)N(CCCO)Cc1ccc(Cl)cc1	-2	0.26	
Cc1nnc2n1CC1CCC(C2)N1Cc1ccc(C(F)(F)F)cc1 (stereo not given)	-5	0.55	
CC(C)NC(=O)N(CC(=O)N1CCn2cccc2[C@H]1c1cccc(F)c1)C1CC1	35	-4.73	
O=C(O)[C@@H]1CCCc2sc(Nc3ccccc3)nc21	-4	0.63	
O=C(N[C@H]1CCN(Cc2ccccn2)C[C@@H]1O)c1cc(F)ccc1F	-20	2.55	
O=C1CCN(C(=O)c2cc3n(n2)CCCO3)CCCCCN1	-13	2.02	
Fc1ccc2nc(CN3CCCC[C@H]3c3nccs3)ccc2c1	-3	0.55	
C#CCCC1(CCC(=O)N2CC(Cc3ccccc3)C2)N=N1	-16	2.05	
Cc1ccc(CNC(=O)CC2CCN(C(=O)c3cc4ccccc4[nH]3)CC2)o1	-3	0.35	
O=C(c1cc(-c2ccco2)[nH]n1)N1CC[C@@](F)(CO)C1	-18	2.74	
CCc1ccc(-c2nc(C)c(C(=O)N3CCCO[C@@H](CC)C3)s2)cc1	-3	0.33	
COc1cc(C(=O)N2CCCCC2)cc(OC)c1OCc1ccccc1	-1	0.24	
CN(C)C(=O)c1n[nH]c2c1CN(Cc1cc(O)c3cc(F)ccc3n1)CC2	4	-0.57	
Cc1ccccc1C(=O)NCCC(=O)N1CCN(Cc2ccccc2)C(C)(C)C1	-10	1.18	
Cc1cc(C)cc(Nc2[nH]nnc2C(=O)NCc2ccc(Cl)cc2)c1	0	0.03	
CN(C)S(=O)(=O)N(CC#N)Cc1ccccc1C(F)(F)F	-9	1.2	
COCCn1nc2n(c1=O)CCC1(CC2)CCN(C(=O)c2cccc(C#N)c2)CC1	2	-0.22	
O=C(Nc1ccc(OC(F)(F)F)cc1)C(F)F	-14	2.13	
Cc1cc(C(=O)N2CCC(Cc3nc4ccccc4[nH]3)CC2)[nH]n1	-18	1.81	
Cc1ccnc(NC(=O)c2ccccc2C(=O)c2ccc(Cl)cc2)c1	-38	4.5	
Cc1ccccc1OCC(=O)N[C@H](c1ccccc1)C1CC1	-13	1.13	
COc1cccc2c1CCc1c(C(=O)NC[C@@H]3CCCN4CCCC[C@H]34)n[nH]c1-2	5	-0.63	
CCO[C@@H](C)C(=O)NCc1cnc2c(c1)CCC2	-21	2.12	
COc1ccccc1CNC(=O)c1nnn2c1CO[C@H](c1ccccc1)C2	-6	0.72	
CC(=O)N1CC[C@H](CNC(=O)Nc2ccc(Cl)cc2)C1	0	0.07	
NC(=O)c1cc(Cl)ccc1OCC1(O)CCCCC1	8	-1.53	
CCn1ncc(CNC(=O)NC2CC(=O)N(C3CC3C)C2)n1 (stereo not given)	18	-2.26	

SMILES	% Inhibition [%]	Z score	% Inhibition (2 µM)
Cc1cnn(C2CN(Cc3nc4c(F)cccc4[nH]3)C2)c1	9	-1.74	
COc1nc2c(cc1CNC1CCN(C(C)C)CC1)C(=O)N(C1CCCC1)C2	6	-0.77	
COCCN1CC[C@H](CNCc2ccccc2OCCCCn2ccnc2)C1	10	-1.22	
Cc1nn(-c2ccccc2)c2nc3[nH]c(=O)[nH]c(=O)c3c(-c3ccc4c(c3)OCO4)c12			-13% and 6%
O=C(NCCc1ccco1)c1cccc(-n2nnc3cccnc32)c1	-16	3.1	
O=C(NCc1ccccc1Cl)c1ccc(Cn2cnc3ccccc32)o1	-2	0.47	
Cc1ccc(CN(C(=O)C2CC(=O)NC(=O)C2)c2ccc(F)cc2)o1	0	-0.01	
COc1ccc(CCNC(=O)c2ccc3n[nH]c(=O)n3c2)cc1OC	-6	0.77	
CN1CCC2(CC1)CN(C(=O)c1nscc1Br)[C@@H]1COC[C@@H]12	0	-0.03	
O=C(Nc1nnc([C@H]2CC(=O)N(c3ccc(OC(F)(F)F)cc3)C2)o1)c1ccc(Cl)cc1	-6	0.93	
Cc1ccsc1CN(Cc1cccc(O)c1)Cc1ccccn1	0	0.05	
CCc1noc(CN(C)Cc2c(C)nn(CCO)c2C)n1	-25	2.68	
Cc1nc(C(F)(F)F)ccc1NC(=O)NCc1ccccc1	-14	1.64	
CC[C@](C)(NC(=O)c1ccc(Cl)cc1F)C(=O)OC	7	-1.07	
Cc1ccc(C(=O)N[C@H]2CCOC3(CC(C(=O)O)C3)C2)cc1C (stereo not given in full)	6	-0.93	
CC(C)C(=O)N1C[C@@H]2CN(C(=O)Cc3cccc(F)c3)C[C@]2(CO)C1	-6	0.76	
COC1C(C)C(NC(=O)[C@H](C)NS(=O)(=O)c2c(C)noc2C)C1(C)C (stereo not given in full)	-5	0.63	
COc1cc(C[C@@]2(CCC(=O)N3CCN(C(=O)c4ccccc4OC)CC3)CCC(=O)N2)ccc1F	7	-1.08	
Cc1cccc(CS(=O)(=O)N2C[C@H](c3cnn(C)c3)C(C)(C)C2)c1	19	-2.46	
CCc1ccc(S(=O)(=O)N2CCOC[C@H]2c2noc(-c3cnn(C)c3)n2)cc1	3	-0.32	
CCCc1nc(N2CCC3(CCNC(=O)CC3)CC2)no1	-5	0.63	
COc1ccc(Cl)cc1N(C)C(=O)Nc1cn(CC(C)C)c(=O)c2ccccc12	0	0.04	
O=C1CN(C(=O)C2CCN(S(=O)(=O)c3ccc(Cl)cc3)CC2)CCN1	9	-1.47	
COCc1nc(C(=O)N2CCCCC[C@H]2c2ccc(C)o2)cs1	0	-0.04	
C[C@H]1CCC(=O)N1c1ccc(NC(=O)CCCC(=O)c2ccccc2)cc1	-14	1.43	
CCCCNc1cc(Cl)ccc1CS(C)(=O)=O	1	-0.07	
